{"source": "the supplement of paper PMC8728848", "binders": {"B1": {"name": "LngA (Escherichia coli) (protein)", "chain": "MLSVYNRTQKFKAEARKKIAKYHELRKQRGMSLLEVIIVLGIIGTIAAGVVILAQRAFDSRAVTDLVTNTNTVRVRMKDAYQRDGKYPDFVDPLSLTANTIKTDTSGIPAAQLVQLGKITPDEVRNNISGDFIAIGGALTSNGAQVKKGFAIELNGLSQEQCRSILGQVGNNWEYVAIGTSASGSYAMTATGVDMSVAASTTVLRSLGNNGQTTLTADKILSTCTAQVNSITLGSR"}}, "assay_in_all_cases": "glycan array binding signal (z-score within array); higher = stronger binding", "settings_in_all_cases": "glycan notation: IUPAC condensed, linker removed", "key": {"[1]": {"target": "Fuc(a1-3)[Gal3S(b1-4)]GlcNAc6S", "outline": "(§1)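 Glycan array data were curated from 3228 arrays in the Consortium for Functional Glycomics database and kept only where the protein sequence was available. Glycan names were converted to IUPAC-condensed notation, and columns mapping to the same glycan were averaged. The binding signal is a within-array Z-score, averaged across arrays of the same protein sequence at different concentrations or buffers and across linkers. Negative Z-scores can be read as non-binding.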"}, "[2]": {"target": "Fuc(a1-3)[GalNAc(b1-4)]GlcNAc", "outline": "as §1"}, "[3]": {"target": "Fuc(a1-3)[GalNAc(b1-4)]GlcNAc6S", "outline": "as §1"}, "Fuc(a1-4)GlcNAc": {"target": "Fuc(a1-4)GlcNAc", "outline": "as §1"}, "Fuc(b1-3)GlcNAc": {"target": "Fuc(b1-3)GlcNAc", "outline": "as §1"}, "Gal(a1-2)Gal": {"target": "Gal(a1-2)Gal", "outline": "as §1"}, "Gal(a1-3)Gal": {"target": "Gal(a1-3)Gal", "outline": "as §1"}, "Gal(a1-3)Gal(b1-3)GlcNAc": {"target": "Gal(a1-3)Gal(b1-3)GlcNAc", "outline": "as §1"}, "[4]": {"target": "Gal(a1-3)Gal(b1-3)GlcNAc(b1-2)Man", "outline": "as §1"}, "[5]": {"target": "Gal(a1-3)Gal(b1-3)GlcNAc(b1-2)Man(a1-3)[Gal(a1-3)Gal(b1-3)GlcNAc(b1-2)Man(a1-6)]Man(b1-4)GlcNAc(b1-4)GlcNAc", "outline": "as §1"}, "[6]": {"target": "Gal(a1-3)Gal(b1-3)GlcNAc(b1-3)GalNAc", "outline": "as §1"}, "[7]": {"target": "Gal(a1-3)Gal(b1-3)GlcNAc(b1-6)GalNAc", "outline": "as §1"}, "[8]": {"target": "Gal(a1-3)Gal(b1-3)[Fuc(a1-4)]GlcNAc(b1-2)Man(a1-3)[Gal(a1-3)Gal(b1-3)[Fuc(a1-4)]GlcNAc(b1-2)Man(a1-6)]Man(b1-4)GlcNAc(b1-4)GlcNAc", "outline": "as §1"}, "Gal(a1-3)Gal(b1-4)Glc": {"target": "Gal(a1-3)Gal(b1-4)Glc", "outline": "as §1"}, "Gal(a1-3)Gal(b1-4)GlcNAc": {"target": "Gal(a1-3)Gal(b1-4)GlcNAc", "outline": "as §1"}, "[9]": {"target": "Gal(a1-3)Gal(b1-4)GlcNAc(b1-2)Man", "outline": "as §1"}, "[10]": {"target": "Gal(a1-3)Gal(b1-4)GlcNAc(b1-2)Man(a1-3)[Gal(a1-3)Gal(b1-4)GlcNAc(b1-2)Man(a1-6)]Man(b1-4)GlcNAc(b1-4)GlcNAc", "outline": "as §1"}, "[11]": {"target": "Gal(a1-3)Gal(b1-4)GlcNAc(b1-3)GalNAc", "outline": "as §1"}, "[12]": {"target": "Gal(a1-3)Gal(b1-4)GlcNAc(b1-6)GalNAc", "outline": "as §1"}, "[13]": {"target": "Gal(a1-3)Gal(b1-4)[Fuc(a1-3)]GlcNAc", "outline": "as §1"}, "[14]": {"target": "Gal(a1-3)Gal(b1-4)[Fuc(a1-3)]GlcNAc(b1-2)Man(a1-3)[Gal(a1-3)Gal(b1-4)[Fuc(a1-3)]GlcNAc(b1-2)Man(a1-6)]Man(b1-4)GlcNAc(b1-4)GlcNAc", "outline": "as §1"}, "Gal(a1-3)GalNAc": {"target": "Gal(a1-3)GalNAc", "outline": "as §1"}, "[15]": {"target": "Gal(a1-3)[Gal(a1-4)]Gal(b1-4)GlcNAc", "outline": "as §1"}, "[16]": {"target": "Gal(a1-4)Gal(b1-3)GlcNAc(b1-2)Man(a1-3)[Gal(a1-4)Gal(b1-3)GlcNAc(b1-2)Man(a1-6)]Man(b1-4)GlcNAc(b1-4)GlcNAc", "outline": "as §1"}, "Gal(a1-4)Gal(b1-4)Glc": {"target": "Gal(a1-4)Gal(b1-4)Glc", "outline": "as §1"}, "Gal(a1-4)Gal(b1-4)GlcNAc": {"target": "Gal(a1-4)Gal(b1-4)GlcNAc", "outline": "as §1"}, "[17]": {"target": "Gal(a1-4)Gal(b1-4)GlcNAc(b1-2)Man(a1-3)[Gal(a1-4)Gal(b1-4)GlcNAc(b1-2)Man(a1-6)]Man(b1-4)GlcNAc(b1-4)GlcNAc", "outline": "as §1"}, "[18]": {"target": "Gal(a1-4)Gal(b1-4)GlcNAc(b1-3)Gal(b1-4)Glc", "outline": "as §1"}, "Gal(a1-4)GlcNAc": {"target": "Gal(a1-4)GlcNAc", "outline": "as §1"}, "Gal(a1-6)Glc": {"target": "Gal(a1-6)Glc", "outline": "as §1"}, "Gal(b1-2)Gal": {"target": "Gal(b1-2)Gal", "outline": "as §1"}, "Gal(b1-3)Gal": {"target": "Gal(b1-3)Gal", "outline": "as §1"}, "Gal(b1-3)Gal(b1-4)GlcNAc": {"target": "Gal(b1-3)Gal(b1-4)GlcNAc", "outline": "as §1"}, "Gal(b1-3)GalNAc": {"target": "Gal(b1-3)GalNAc", "outline": "as §1"}, "[19]": {"target": "Gal(b1-3)GalNAc(a1-3)[Fuc(a1-2)]Gal(b1-4)Glc", "outline": "as §1"}, "[20]": {"target": "Gal(b1-3)GalNAc(a1-3)[Fuc(a1-2)]Gal(b1-4)GlcNAc", "outline": "as §1"}, "Gal(b1-3)GalNAc(b1-3)Gal": {"target": "Gal(b1-3)GalNAc(b1-3)Gal", "outline": "as §1"}, "[21]": {"target": "Gal(b1-3)GalNAc(b1-3)Gal(a1-4)Gal(b1-4)Glc", "outline": "as §1"}, "[22]": {"target": "Gal(b1-3)GalNAc(b1-4)Gal(b1-4)Glc", "outline": "as §1"}, "[23]": {"target": "Gal(b1-3)GalNAc(b1-4)[Neu5Ac(a2-3)]Gal(b1-4)Glc", "outline": "as §1"}, "Gal(b1-3)GlcNAc": {"target": "Gal(b1-3)GlcNAc", "outline": "as §1"}, "[24]": {"target": "Gal(b1-3)GlcNAc(a1-3)Gal(b1-4)GlcNAc", "outline": "as §1"}, "[25]": {"target": "Gal(b1-3)GlcNAc(a1-6)Gal(b1-4)GlcNAc", "outline": "as §1"}, "Gal(b1-3)GlcNAc(b1-2)Man": {"target": "Gal(b1-3)GlcNAc(b1-2)Man", "outline": "as §1"}, "[26]": {"target": "Gal(b1-3)GlcNAc(b1-2)Man(a1-3)[Gal(b1-3)GlcNAc(b1-2)Man(a1-6)]Man(b1-4)GlcNAc(b1-4)GlcNAc", "outline": "as §1"}}, "note": "The other results are listed elsewhere or left out."}
{"binder": "B1", "values": [{"measurement": "glycan array binding signal (z-score)", "setting": "[1]", "value": -0.137}, {"measurement": "glycan array binding signal (z-score)", "setting": "[2]", "value": 0.135}, {"measurement": "glycan array binding signal (z-score)", "setting": "[3]", "value": -0.265}, {"measurement": "glycan array binding signal (z-score)", "setting": "Fuc(a1-4)GlcNAc", "value": -0.404}, {"measurement": "glycan array binding signal (z-score)", "setting": "Fuc(b1-3)GlcNAc", "value": -0.322}, {"measurement": "glycan array binding signal (z-score)", "setting": "Gal(a1-2)Gal", "value": 0.247}, {"measurement": "glycan array binding signal (z-score)", "setting": "Gal(a1-3)Gal", "value": -0.397}, {"measurement": "glycan array binding signal (z-score)", "setting": "Gal(a1-3)Gal(b1-3)GlcNAc", "value": 2.92}, {"measurement": "glycan array binding signal (z-score)", "setting": "[4]", "value": -0.379}, {"measurement": "glycan array binding signal (z-score)", "setting": "[5]", "value": 1.17}, {"measurement": "glycan array binding signal (z-score)", "setting": "[6]", "value": -0.134}, {"measurement": "glycan array binding signal (z-score)", "setting": "[7]", "value": -0.419}, {"measurement": "glycan array binding signal (z-score)", "setting": "[8]", "value": 0.951}, {"measurement": "glycan array binding signal (z-score)", "setting": "Gal(a1-3)Gal(b1-4)Glc", "value": -0.144}, {"measurement": "glycan array binding signal (z-score)", "setting": "Gal(a1-3)Gal(b1-4)GlcNAc", "value": -0.412}, {"measurement": "glycan array binding signal (z-score)", "setting": "[9]", "value": -0.312}, {"measurement": "glycan array binding signal (z-score)", "setting": "[10]", "value": -0.212}, {"measurement": "glycan array binding signal (z-score)", "setting": "[11]", "value": -0.423}, {"measurement": "glycan array binding signal (z-score)", "setting": "[12]", "value": -0.376}, {"measurement": "glycan array binding signal (z-score)", "setting": "[13]", "value": -0.594}, {"measurement": "glycan array binding signal (z-score)", "setting": "[14]", "value": 1.36}, {"measurement": "glycan array binding signal (z-score)", "setting": "Gal(a1-3)GalNAc", "value": -0.397}, {"measurement": "glycan array binding signal (z-score)", "setting": "[15]", "value": -0.228}, {"measurement": "glycan array binding signal (z-score)", "setting": "[16]", "value": -0.213}, {"measurement": "glycan array binding signal (z-score)", "setting": "Gal(a1-4)Gal(b1-4)Glc", "value": -0.089}, {"measurement": "glycan array binding signal (z-score)", "setting": "Gal(a1-4)Gal(b1-4)GlcNAc", "value": -0.233}, {"measurement": "glycan array binding signal (z-score)", "setting": "[17]", "value": -0.463}, {"measurement": "glycan array binding signal (z-score)", "setting": "[18]", "value": -0.482}, {"measurement": "glycan array binding signal (z-score)", "setting": "Gal(a1-4)GlcNAc", "value": -0.206}, {"measurement": "glycan array binding signal (z-score)", "setting": "Gal(a1-6)Glc", "value": 0.061}, {"measurement": "glycan array binding signal (z-score)", "setting": "Gal(b1-2)Gal", "value": 2.94}, {"measurement": "glycan array binding signal (z-score)", "setting": "Gal(b1-3)Gal", "value": -0.316}, {"measurement": "glycan array binding signal (z-score)", "setting": "Gal(b1-3)Gal(b1-4)GlcNAc", "value": -0.345}, {"measurement": "glycan array binding signal (z-score)", "setting": "Gal(b1-3)GalNAc", "value": -0.143}, {"measurement": "glycan array binding signal (z-score)", "setting": "[19]", "value": -0.47}, {"measurement": "glycan array binding signal (z-score)", "setting": "[20]", "value": -0.315}, {"measurement": "glycan array binding signal (z-score)", "setting": "Gal(b1-3)GalNAc(b1-3)Gal", "value": -0.455}, {"measurement": "glycan array binding signal (z-score)", "setting": "[21]", "value": -0.274}, {"measurement": "glycan array binding signal (z-score)", "setting": "[22]", "value": -0.145}, {"measurement": "glycan array binding signal (z-score)", "setting": "[23]", "value": -0.414}, {"measurement": "glycan array binding signal (z-score)", "setting": "Gal(b1-3)GlcNAc", "value": -0.367}, {"measurement": "glycan array binding signal (z-score)", "setting": "[24]", "value": -0.545}, {"measurement": "glycan array binding signal (z-score)", "setting": "[25]", "value": -0.396}, {"measurement": "glycan array binding signal (z-score)", "setting": "Gal(b1-3)GlcNAc(b1-2)Man", "value": -0.424}, {"measurement": "glycan array binding signal (z-score)", "setting": "[26]", "value": -0.329}]}
